# Source: PubChem BioAssay (NCATS)
# Where “and” joins values, the source holds several entries; their conditions need not be identical. Identical values can stand only once. This is one part of the list. The main result of the screen is listed elsewhere. These columns were measured beside it and carry no call. Words in brackets tell the shape of the fitted curve; partial curves, single points and poor fits give uncertain potencies.
# Assay: qHTS drug screen for cell cycle checkpoint inhibitors in PARPi-resistant BRCA-mutant ovarian cancer cell lines. (AID 1963452)
# Conditions: PEO1/OlaR viability, CellTiter-Glo luminescence, 96 h
# In short: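 PEO1, PEO4 and PEO1/OlaR ovarian cancer cells, 600 per well, exposed 96 h at 37C to a dilution series. Viability read by CellTiter-Glo luminescence, normalized to DMSO and empty wells; activity summarized as Z-AUC.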
# [1] = measured here: PEO1 parental viability
# Tags give direction and shape of the fitted curve.
Compound,AC50 [1],AC50 (measured here: PEO4 viability)
Cc1cc(Nc2ncnc3ccc(NC4=NC(C)(C)CO4)cc23)ccc1Oc1ccn2ncnc2c1,"13.8 µM [falling, partial curve]","15.5 µM [falling, single point]"
CC(C)c1c(C(=O)Nc2ccccc2)c(-c2ccccc2)c(-c2ccc(F)cc2)n1CC[C@@H](O)C[C@@H](O)CC(=O)O,"13.4 µM [falling, single point]","5.35 µM [falling, partial curve, poor fit]"
CNC(=O)Cn1cc(-c2ccc3c(c2)C(F)CC32NC(=O)N(CC(=O)N(Cc3ccc(F)cc3)C(C)C(F)(F)F)C2=O)cn1 (centres undefined),"1.1 µM [falling, full curve, poor fit]","0.138 µM [falling, full curve, poor fit]"
CNC(=O)Cn1cc(-c2ccc3c(c2)C(F)CC32NC(=O)N(CC(=O)N(Cc3ccc(F)cc3)[C@@H](C)C(F)(F)F)C2=O)cn1 (some centres undefined),"0.0776 µM [falling, full curve]","0.0549 µM [falling, full curve]"
c1ccc2c(-c3cnn4cc(-c5ccc(OCCN6CCOCC6)cc5)cnc34)ccnc2c1,"1.2 µM [falling, full curve]","8.48 µM [falling, partial curve]"
Cc1c(NC(=O)c2cc(C(N)=O)nc3cc(F)ccc23)c(C(F)(F)F)nn1Cc1ccc(C#N)cc1,"0.155 µM [falling, full curve]","0.245 µM [falling, partial curve, poor fit]"
CC(C)(C)C[C@H]1N[C@@H](C(=O)NC2CCC(O)CC2)[C@H](c2cccc(Cl)c2F)[C@@]12C(=O)Nc1cc(Cl)ccc12 (some centres undefined),"24.5 µM [falling, single point]","13.8 µM [falling, single point]"
CNC(=O)c1cccc2cc(Oc3ccnc4cc(OCC5(N)CC5)c(OC)cc34)ccc12,"24.5 µM [falling, single point]","13.8 µM [falling, partial curve]"
C/C=C/C[C@@H](C)C(=O)[C@H]1C(=O)N[C@@H](C(C)C)C(=O)N(C)CC(=O)N(C)[C@@H](CC(C)C)C(=O)N[C@@H](C(C)C)C(=O)N(C)[C@@H](CC(C)C)C(=O)N[C@@H](C)C(=O)N[C@H](C)C(=O)N(C)[C@@H](CC(C)C)C(=O)N(C)[C@@H](CC(C)C)C(=O)N(C)[C@@H](C(C)C)C(=O)N1C,"0.0301 µM [falling, full curve]","4.77 µM [falling, partial curve, poor fit]"
C=CC(=O)Nc1cccc(Nc2nc(Nc3ccc(N4CCN(C(C)=O)CC4)cc3OC)ncc2C(F)(F)F)c1,"24.5 µM [falling, single point]","24.5 µM [falling, single point]"
Nc1ncnc(Nc2ccc(OCc3ccccc3)c(Cl)c2)c1/C=N/OCCN1CCOCC1,"17.4 µM [falling, single point]","17.4 µM [falling, partial curve]"
CCCOc1ccc(CCc2nc3cc(-c4c(C)noc4C)ccc3n2CCN2CCOCC2)cc1,"21.9 µM [falling, single point]","19.5 µM [falling, single point]"
CNC(=O)c1ccc(Nc2ncc(C(F)(F)F)c(NCc3nccnc3N(C)S(C)(=O)=O)n2)cc1,"6.92 µM [falling, single point]","2.19 µM [falling, full curve]"
Cc1ccc(Sc2ccccc2N2CCNCC2)c(C)c1,"15.5 µM [falling, partial curve]","24.5 µM [falling, single point]"
N#Cc1cccnc1N1CCN(C(=O)c2cccc(Cc3n[nH]c(=O)c4ccccc34)c2)CC1,"0.245 µM [falling, full curve]","1.95 µM [falling, full curve, poor fit]"
CC/C(=C(/c1ccc(/C=C/C(=O)O)cc1)c1ccc2[nH]ncc2c1)c1ccc(F)cc1Cl,"17.4 µM [falling, single point]","19.5 µM [falling, single point]"
C[C@@H](Oc1ccc2[nH]nc(/C=C/c3cnn(CCO)c3)c2c1)c1c(Cl)cncc1Cl,"2.75 µM [falling, partial curve]","1.95 µM [falling, partial curve, poor fit]"
CC[C@]12C=CCN3CC[C@@]4(c5cc([C@@]6(C(=O)OC)C[C@H]7C[C@@H](C(C)(F)F)CN(Cc8c6[nH]c6ccccc86)C7)c(OC)cc5N(C)[C@H]4[C@@](O)(C(=O)OC)[C@@H]1OC(C)=O)[C@@H]32,"145 nM [falling, full curve] and 776 nM [falling, full curve]","230 nM [falling, full curve] and 275 nM [falling, full curve]"
CCn1nc(C2CCN(C(=O)CCO)CC2)nc1-c1cnc(N)c(-c2nnc(C(C)(C)C)o2)n1,"15.5 µM [falling, partial curve]","19.5 µM [falling, partial curve]"
COc1cc(OC)c(/C=C/S(=O)(=O)Cc2ccc(OC)c(OP(=O)(O)O)c2)c(OC)c1,"0.049 µM [falling, full curve]","0.0436 µM [falling, full curve]"
C[C@H](Nc1ncnc2nc[nH]c12)c1cc2cccc(Cl)c2c(=O)n1-c1ccccc1,"13.8 µM [falling, single point] and 8.71 µM [falling, partial curve, poor fit]","15.5 µM [falling, partial curve, poor fit] and 7.76 µM [falling, partial curve, poor fit]"
CC1=C(c2ccc(O)cc2)[C@H](c2ccc(OCCN3CCCCC3)cc2)Oc2cc(O)ccc21,"24.5 µM [falling, single point]","24.5 µM [falling, single point]"
